# Measurements as given in PubChem BioAssay AID485344 (National Center for Advancing Translational Sciences (NCATS), 2010).
# Hit rate of the full screen: of about 340,000 compounds, about 6,900 (2%) were called active. No stated cut-off is given here; in the data, active means inhibition above about 30%; inactive means below that, where a call was filed. The entries are a selection whose mix differs from that of the whole data set. Where no call is shown, the source filed none.
# Target: D(2) dopamine receptor (Homo sapiens) (UniProt P14416)
# Sequence of UniProt P14416 (P14416 whole entry, looked up): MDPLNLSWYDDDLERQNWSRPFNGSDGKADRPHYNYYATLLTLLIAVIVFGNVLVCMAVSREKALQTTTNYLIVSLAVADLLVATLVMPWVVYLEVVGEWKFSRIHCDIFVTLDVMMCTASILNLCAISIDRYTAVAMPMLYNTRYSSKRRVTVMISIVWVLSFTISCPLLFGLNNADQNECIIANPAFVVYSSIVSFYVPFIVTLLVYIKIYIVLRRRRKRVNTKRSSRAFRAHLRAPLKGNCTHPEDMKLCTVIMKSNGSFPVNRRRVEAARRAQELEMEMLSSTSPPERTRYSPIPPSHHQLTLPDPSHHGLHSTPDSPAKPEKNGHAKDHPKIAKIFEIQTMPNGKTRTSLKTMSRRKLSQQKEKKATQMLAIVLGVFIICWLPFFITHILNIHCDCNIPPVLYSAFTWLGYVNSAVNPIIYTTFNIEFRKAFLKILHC
# Assay: HTS Assay for Allosteric Antagonists of the Human D2 Dopamine Receptor: Primary Screen for Antagonists; further: 0% is about no effect
# Settings: HEK293 TREx D2 cells, calcium flux, dopamine EC80; at 10 µM; stronger effect = higher value
# How it was run: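 Tetracycline-induced HEK293 TREx cells expressing D2 receptor forced-coupled to calcium signalling, loaded with no-wash calcium dye. Compounds added and calcium flux read 180 s, then dopamine added at EC80 and read a further 180 s.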
row,Compound,inhibition
1,CCOC(=O)c1ccccc1NC(=O)C1CC(=O)N(C2CCCCC2)C1 (stereo not drawn),active: 41.4%
2,Cc1cc(Oc2ccc(C#N)cc2)nc(NCc2ccccc2)n1,active: 42.4%
3,CCc1ccc(CN(Cc2ccco2)C(=O)c2ccc(OC)cc2)cc1,7.91%
4,COc1ccc(N2CCN(c3oc(/C=C/c4ccc(F)cc4)nc3C#N)CC2)cc1,25%
5,COCCCNC(=O)CSC1=Nc2ccccc2C2=NC(CCC(=O)NCc3ccccc3OC)C(=O)N12 (stereo not drawn),-11.7%
6,O=S(=O)(Nc1cccc(-c2ccc(N3CCCC3)nn2)c1)c1ccccc1C(F)(F)F,-6.51%
7,COc1ccccc1CNC(=O)c1ccc2c(c1)N(Cc1cccc(C)c1)C(=O)c1ccccc1S2(=O)=O,-1.41%
8,COc1ccc(NC(=O)Cn2nnc3sc4c(c3c2=O)CCC(C)C4)c(OC)c1 (stereo not drawn),-1.61%
9,COc1ccc(Cl)cc1NC(=O)c1sc(-n2nc(C)c(Cc3ccccc3)c2C)nc1C,2.05%
10,Cc1ccc(C)c(Cn2c3ccccc3c3cnn(CC(=O)NCCC4=CCCCC4)c(=O)c32)c1,15.6%
11,CCn1c(=O)c2cc(C(=O)N(CCN(C)C)Cc3ccccc3)sc2c2ccccc21,-2.25%
12,CCOc1ccc(-c2nn(CC(=O)NC3CCCCC3)c3c2cnc2ccc(C)cc23)cc1,2.35%
13,CCCn1c2ccccc2c2cnn(CC(=O)NCCc3ccc(OCC)cc3)c(=O)c21,7.55%
14,COc1cc(-c2noc(-c3ccc(NCc4ccccc4)c([N+](=O)[O-])c3)n2)cc(OC)c1OC,19.9%
15,Cc1ccc(C(=O)NCCc2ccc(Cl)cc2)cc1-n1c(C)nc2cccnc21,5.17%
16,CCOc1ccc(NC(=O)CCNS(=O)(=O)c2ccc3c(c2)oc(=O)n3C)cc1,3.93%
17,Cc1ccc(-c2nnc(Nc3ccc(O)cc3)c3ccccc23)cc1S(=O)(=O)N1CCN(C)CC1,-1.9%
18,COc1ccc(Nc2cc(C(=O)NCCc3ccc(C)cc3)c3ccccc3n2)c(OC)c1,-0.67%
19,CCOC(=O)N1CCC(NC(=O)c2c(C)nn(-c3ccc(C)cc3)c2-n2cccc2)CC1,0.19%
20,CCOCCCNC(=O)C1CCN(c2nn3cc(-c4ccc(F)cc4)nc3s2)CC1,14.2%
21,CCCCOc1ccc(C(=O)Nc2nnc3n2CCS3)cc1,16.4%
22,Cc1cc(C)cc(NC(=O)CSc2nc3c(oc4ccccc43)c(=O)n2-c2ccccc2F)c1,14.4%
23,COc1ccc2cc3cc(C(=O)NCc4ccc(C)cc4)oc3nc2c1,4.65%
24,COc1ccc(OC)c(CCNC(=O)c2ccc3c(c2)N(Cc2ccc(C)cc2)CCS3)c1,-10.8%

row,Compound,inhibition
1,COc1ccc(F)cc1S(=O)(=O)NCCc1c(C)[nH]c2c(Cl)cccc12,-1.91%
2,CCc1cccc(OCC(=O)Nc2ccc(S(=O)(=O)Nc3cc(C)nc(C)n3)cc2)c1,-8.55%
3,COc1cccc(C(c2sc3nc(-c4ccco4)nn3c2O)N2CCC(O)CC2)c1 (stereo not drawn),6.2%
4,Cc1ccc(CNC(=O)c2ccc3nc(N4CCCCC4)sc3c2)cc1,-4.42%
5,O=S(=O)(NCCc1nnc2ccc(SCc3ccc(Cl)cc3Cl)nn12)c1ccccc1,0.749%
6,CCOc1ccc(CCNC(=O)c2ccc3c(Cl)c4c(nc3c2)CCCC4)cc1,-6.04%
7,CCOC(=O)c1ccc(NC(=O)c2c(NC(C)=O)sc3c2CCC(C)C3)cc1 (stereo not drawn),16.3%
8,COCCOC(=O)c1c(C)n(S(=O)(=O)c2ccc(C)cc2)c2ccc(NS(=O)(=O)c3ccc(C)cc3)cc12,-9.7%
9,CCOc1ccccc1NC(=O)c1sc2nc3n(c(=O)c2c1C)CCCCC3,22.9%
10,C1=CC2CC1CC2CN1CCN(c2ccccc2)CC1 (stereo not drawn),active: 77.2%
11,Cc1nn(Cc2ccc(F)cc2)c(C)c1NC(=O)c1cc(CC(C)C)on1,6.01%
12,Cn1c(=O)c(=O)n(C)c2cc(N3CCOCC3)c(NS(=O)(=O)c3ccc(Cl)cc3)cc21,1.78%
13,COC(=O)c1scc(-c2ccc(C)cc2)c1S(=O)(=O)Nc1cc(Cl)ccc1C,7.63%
14,CCc1ccc(S(=O)(=O)c2cn(CC(=O)Nc3ccc(C)cc3)c3ccccc3c2=O)cc1,4%
15,CCOC(=O)c1[nH]c2c(c1Cc1ccccc1)C(=O)CC(c1ccc(Cl)cc1)C2 (stereo not drawn),19.4%
16,CCN(CC)c1ccc(NS(=O)(=O)c2ccc(-c3cnc(C4CC4)o3)cc2)c(C)c1,-11.9%
17,CCOc1ccccc1N1CCN(Cc2cn[nH]c2-c2ccc(F)cc2)CC1,active: 80.9%
18,CCC1CN(C(=O)N2CCC(C(=O)NCCc3ccc(Cl)cc3)CC2)c2ccccc2O1 (stereo not drawn),4.08%
19,CCCn1c(SCc2nc(-c3ccc(OC)cc3OC)no2)nnc1-c1ccc(Cl)cc1,0.82%
20,Cc1cccc(C)c1NC(=O)CSc1nc(-c2ccccc2)nc2c1Cc1c(CO)cnc(C)c1O2,26.1%
21,O=C1NCCN(Cc2ccc(F)cc2)C1=O,11.3%
22,Cc1ccc(NC(=O)Cn2cc(C(=O)C3CC3)c3ccccc32)cc1,-8.39%
23,COc1ccc(NC(=O)Cn2nnc(C(=O)Nc3ccc(F)c(Cl)c3)c2N)cc1OC,4.03%
24,CCC(=O)c1ccc(OCC(O)CN2CCN(c3ccccn3)CC2)cc1 (stereo not drawn),active: 73.6%

row,Compound,inhibition
1,Cn1c(SCc2ccc(F)cc2)nc2ccc(C(=O)NCc3ccc(Cl)cc3)cc21,-6.3%
2,COc1ccc(-c2noc(CN(C(=O)COc3cc(C)c(Br)c(C)c3)C(C)C)n2)cc1,11.8%
3,CCOc1ccc(N(C(=O)CC(C)C)S(=O)(=O)c2ccc3c(c2)oc(=O)n3C)cc1,10.6%
4,COc1ccc(CCNC(=O)CCCn2c(=O)c3ccccc3n(Cc3cccc(Cl)c3)c2=O)cc1OC,12.4%
5,COc1ccc(S(=O)(=O)n2nc(C)c(S(=O)(=O)N3CCC(C)CC3)c2C)cc1C,-13.7%
6,COc1ccc(CCNS(=O)(=O)c2ccc3c(c2)CC(C)N3C(=O)C2CCC2)cc1OC (stereo not drawn),3.07%
7,CCC(=O)Nc1c(C(=O)N2CCN(c3ccc(F)cc3)CC2)oc2ccccc12,4.66%
8,O=C(c1ccc(NC(=O)C2(c3ccccc3)CCOCC2)cc1)N1CCOCC1,active: 31.7%
9,CCOC(=O)c1sc2ncn(CC(=O)Nc3ccc(N(C)C)cc3)c(=O)c2c1C,-3.26%
10,COc1ccccc1N1CCN(C2CCCC(C)C2)CC1 (stereo not drawn),active: 33.9%
11,O=C(Nc1nc2ccc(S(=O)(=O)N3CCCC3)cc2s1)c1cccc(F)c1,3.7%
12,COc1ccc(OC)c(CNC(=O)c2nn(-c3ccc(OC)c(Cl)c3)c(=O)c3c2c2ccccc2n3C)c1,-9.18%
13,Cc1cc(NC(=O)CSc2nnc(-c3cccs3)n2N)no1,active: 38.8%
14,CCS(=O)(=O)N1CCc2cc(C(=O)Nc3ccc(OC)c(Cl)c3)ccc21,-3.95%
15,CCOc1ccc2nc(N3CCCC(C(=O)Nc4c(C)cccc4C)C3)sc2c1 (stereo not drawn),3.14%
16,Cc1ccc(Sc2c(C)nn(C(=O)COc3ccccc3Br)c2C)cc1,-6.52%
17,COc1cc(C(=O)NCCCc2nc3ccccc3n2CC(C)C)cc(OC)c1OC,-8.31%
18,O=C(C1CCN(S(=O)(=O)c2ccc(Br)s2)CC1)N1CCN(c2cccc(Cl)c2)CC1,-6.13%
19,CCOc1ccc(CCNC(=O)c2sc3nc4n(c(=O)c3c2C)CCCC4)cc1OCC,-4.97%
20,CCOC(=O)c1ccc(NC(=O)CCn2c(=O)c3cccn3c3ccccc32)cc1,10.1%
21,COc1ccc(-n2c(SCC(=O)Nc3ccc(Cl)c(C)c3)nc3n[nH]c(C)c3c2=N)cc1,3.3%
22,NC(=O)c1c(NC(=O)c2nc(SCc3ccccc3F)ncc2Cl)sc2c1CCCC2,-6.62%
23,CCOC(=O)c1c(NC(=O)c2ccc(S(=O)(=O)N3CCC(C)CC3)cc2)sc2c1CCN(C)C2,4.29%
24,COc1ccc(C)cc1NC(=O)c1oc2ccc(S(=O)(=O)N3CCCCC3)cc2c1C,-7.37%

row,Compound,inhibition
1,Cc1ccc(C)c(N2CCN(S(=O)(=O)c3cc(Br)cc4c3N(C(=O)C3CC3)CC4)CC2)c1,-2.6%
2,COc1cccc(C(=O)C2CCCN(Cc3cccc(-n4cccn4)c3)C2)c1 (stereo not drawn),active: 31.7%
3,CCOc1ccc(C2c3[nH]c4ccccc4c3CCN2C(=O)CCc2ccccc2)cc1 (stereo not drawn),9.82%
4,COC(=O)c1nc2n(n1)C(c1cccc(Cl)c1)C(C(=O)Nc1ccccc1OC)=C(C)N2 (stereo not drawn),-15.8%
5,Cc1cccc(C)c1NC(=O)C(NS(=O)(=O)c1ccc2c(c1)CCC(=O)N2)c1ccccc1 (stereo not drawn),0.146%
6,Cc1c2cnn(-c3ccccc3)c(=O)c2c(C)n1CCCC(=O)Nc1cc(F)ccc1F,1.48%
7,Cc1ccc(-c2nc(C)c(CCNC(=O)c3ccco3)s2)cc1,-8.34%
8,O=C(CSc1nc2ccccc2nc1Cc1ccc(Cl)cc1)N1CCc2ccccc21,-9.45%
9,CCN(c1cccc(C)c1)S(=O)(=O)c1nnc(NC(=O)C2CCCCC2)s1,16.9%
10,O=C(CSC1=Nc2ccccc2C2=NC(CC(=O)NC3CCCCC3)C(=O)N12)Nc1ccc(F)cc1 (stereo not drawn),6.68%
11,CCOc1ccc(NC(=O)CSc2ncc3c(n2)-c2ccc(Cl)cc2N(Cc2ccccc2)S3(=O)=O)cc1,-0.826%
12,COc1ccc(-c2nc3sc(CCNC(=O)c4cc(OC)c(OC)c(OC)c4)c(C)n3n2)cc1,17.1%
13,COc1ccc(N2CCN(S(=O)(=O)c3ccc4oc(=O)c5ncn(C)c5c4c3)CC2)cc1,8.79%
14,CCc1ccc(C2CC(=O)c3c([nH]c(C(=O)OC4CCC(C)CC4)c3C)C2)cc1 (stereo not drawn),16.4%
15,CNC(=O)c1ccc2nc(CCc3ccccc3)oc2c1,-24.4%
16,COc1ccc(S(=O)(=O)NCc2cccn2Cc2cccc(C)c2)cc1Cl,17.1%
17,COc1ccc(-c2cc(C(F)(F)F)nc(SCC(=O)N3CCCCC3)n2)cc1OC,-11.4%
18,COc1ccc(OC)c(S(=O)(=O)N2Cc3ccccc3CC2C(=O)Nc2ccc(C)cc2C)c1 (stereo not drawn),13.4%
19,COc1ccc(-c2nc(SCC(=O)Nc3ccccc3)c(-c3ccc(F)cc3)[nH]2)cc1OC,10.9%
20,CCc1cccc(C)c1NC(=O)C(CC)n1nc(C)c2c(C)n(-c3ccccc3)nc2c1=O (stereo not drawn),3.71%
21,COCCNc1ccc(-c2nc(-c3ccncc3)no2)cc1[N+](=O)[O-],16.5%
